For assay [1], the target named is T1, human NTCP (Homo sapiens, UniProt Q14973).
T1 sequence (Q14973 1-349): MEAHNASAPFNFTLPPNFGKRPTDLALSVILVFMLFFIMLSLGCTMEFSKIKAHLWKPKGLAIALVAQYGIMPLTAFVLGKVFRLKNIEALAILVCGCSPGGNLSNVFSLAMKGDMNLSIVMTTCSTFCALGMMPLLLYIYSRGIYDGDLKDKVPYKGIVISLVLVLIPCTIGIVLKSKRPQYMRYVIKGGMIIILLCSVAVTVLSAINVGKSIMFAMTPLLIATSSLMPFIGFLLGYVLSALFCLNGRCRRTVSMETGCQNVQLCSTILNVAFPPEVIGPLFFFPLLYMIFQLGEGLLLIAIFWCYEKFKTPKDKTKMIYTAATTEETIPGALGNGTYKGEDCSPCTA
As to the kind of experiment: Screening taurocholate uptake assay (96-well, [14C]taurocholate, 10 µM drug). To be noted: for remaining activity at 10 µM: 10 min, read-out: %NTCP activity.

The target in assay [2] is T1, human NTCP. As to the kind of experiment: Screening fluorescent competitive Myrcludex B-FITC binding assay (96-well, 10 µM drug).
The mark [3] stands for this setting: Prestwick library screen, [14C]taurocholate uptake, 10 µM drug.
Setting [4] is: Prestwick library screen, Myrcludex B-FITC binding, 10 µM drug.
The mark [5] stands for this setting: Prestwick library screen, 10 µM drug, [14C]taurocholate uptake.
Setting [6] is: Prestwick library screen, 10 µM drug, Myrcludex B-FITC binding.

Where a name gives a salt, the structure may show the parent alone. Read-outs that look alike come from different tables or passages of the source.

Regarding `CNCCC=C1c2ccccc2C=Cc2ccccc21` [Norcyclobenzaprine], the “%NTCP activity” value in assay [1] (setting [3]) is 75.4045%. In assay [2] (setting [4]), the “%NTCP binding” value was determined as 78.2094%.
For `C#C[C@]1(O)CC[C@H]2[C@@H]3CCC4=C(CCC(=O)C4)[C@H]3CC[C@@]21C` [Norethynodrel], the remaining activity at 10 µM in assay [1] is 129%; in assay [2] (0.5 h, read-out: %NTCP binding), 108%.
For the compound `CCn1cc(C(=O)O)c(=O)c2cc(F)c(N3CCNCC3)cc21` [Norfloxacin], the remaining activity at 10 µM in assay [1] stood at 95.1%; in assay [2] (0.5 h, read-out: %NTCP binding), 87%.
`CO[C@@H]1[C@@H](OC(N)=O)[C@@H](O)[C@H](Oc2ccc3c([O-])c(NC(=O)c4ccc(O)c(CC=C(C)C)c4)c(=O)oc3c2C)OC1(C)C.[Na+]` [Novobiocin sodium salt]: the “%NTCP activity” value in assay [1] (setting [5]) worked out at 108.777%. The “%NTCP binding” value in assay [2] (setting [6]) is 115.783%.
As to `CC(CCc1ccccc1)NC(C)C(O)c1ccc(O)cc1` (stereo not drawn) [Nylidrin], the remaining activity at 10 µM in assay [1] came to 94.3%; in assay [2] (0.5 h, read-out: %NTCP binding) it was 88.3%.
For `C[C@@H]1[C@H](O)[C@@H](C)/C=C/C=C/CC/C=C/C=C/C=C/C=C/C(O[C@H]2O[C@H](C)[C@@H](O)[C@H](N)[C@@H]2O)CC2O[C@](O)(CC(O)C(O)CCC(O)CC(O)CC(O)CC(=O)O[C@H]1C)CC(O)C2C(=O)O` (stereo partly drawn) [Nystatine], in assay [1], the “%NTCP activity” value is 57.0966%. For the same compound, the “%NTCP binding” value in assay [2] (setting [4]) is 89.5394%.
Turning to `CC1COc2c(N3CCN(C)CC3)c(F)cc3c(=O)c(C(=O)O)cn1c23` (stereo not drawn) [Ofloxacin], the remaining activity at 10 µM in assay [1] stood at 130%; in assay [2] (0.5 h, read-out: %NTCP binding), 71.4%.
Take `Cc1cc2c(s1)Nc1ccccc1N=C2N1CCN(C)CC1` [Olanzapine]: the remaining activity at 10 µM in assay [1] is 82.8%; in assay [2] (0.5 h, read-out: %NTCP binding, Prestwick library screen, 10 µM drug, Myrcludex B-FITC binding) it was 101%.
Consider `CN(C)CC/C=C1/c2ccccc2COc2ccc(CC(=O)O)cc21` [Olopatadine hydrochloride], for which the remaining activity at 10 µM turned out to be 118% in assay [1] and 99.5% in assay [2] (0.5 h, read-out: %NTCP binding).
The corresponding values for `COc1ccc2[nH]c([S+]([O-])Cc3ncc(C)c(OC)c3C)nc2c1` (stereo not drawn) [Omeprazole] are 51.5% and 75.2%.
Consider `Cc1nccn1CC1CCc2c(c3ccccc3n2C)C1=O.Cl` (stereo not drawn) [Ondansetron Hydrochloride], for which, in assay [1] (setting [3]), the “%NTCP activity” value was 128.53%. Moreover, the “%NTCP binding” value in assay [2] (setting [4]) is on record as 71.5151%.
Take `OCCN1CCN(CCCN2c3ccccc3C=Cc3ccccc32)CC1` [Opipramol dihydrochloride]: the remaining activity at 10 µM in assay [1] came to 77.6%; in assay [2] (0.5 h, read-out: %NTCP binding), 86.2%.
Regarding `Cc1onc(-c2ccccc2)c1C(=O)N[C@@H]1C(=O)N2[C@@H]1SC(C)(C)[C@@H]2C(=O)[O-].[Na+]` [Oxacillin sodium], the “%NTCP activity” value in assay [1] turned out to be 103.176%. Also, the “%NTCP binding” value in assay [2] (setting [6]) is reported as 82.1995%.
For `C[C@]12COC(=O)C[C@@H]1CC[C@@H]1[C@@H]2CC[C@@]2(C)[C@H]1CC[C@]2(C)O` [Oxandrolone], the remaining activity at 10 µM in assay [1] is 63.2%; in assay [2] (0.5 h, read-out: %NTCP binding), 87.4%.
The corresponding values for `NC(=O)N1c2ccccc2CC(=O)c2ccccc21` [Oxcarbazepine] are 42.6% and 75.2%.
The corresponding values for `CN(C(=O)CN(CCO)CC(=O)N(C)C(C)(C)Cc1ccccc1)C(C)(C)Cc1ccccc1` [Oxethazaine] are 111% and 100%.
`COC(=O)Nc1nc2ccc([S+]([O-])c3ccccc3)cc2[nH]1` (stereo not drawn) [Oxfendazol]: the remaining activity at 10 µM in assay [1] turned out to be 90.2%; in assay [2] (0.5 h, read-out: %NTCP binding), 117%.
On to `CCn1cc(C(=O)O)c(=O)c2cc3c(cc21)OCO3` [Oxolinic acid], for which the remaining activity at 10 µM in assay [1] came to 110%; in assay [2] (0.5 h, read-out: %NTCP binding, Prestwick library screen, Myrcludex B-FITC binding, 10 µM drug) it was 85.7%.
Regarding `COc1ccc(C(=O)c2ccccc2)c(O)c1` [Oxybenzone], the remaining activity at 10 µM is 79% in assay [1] and 99.7% in assay [2] (0.5 h, read-out: %NTCP binding).
With `CCN(CC)CC#CCOC(=O)C(O)(c1ccccc1)C1CCCCC1` (stereo not drawn) [Oxybutynin chloride], the remaining activity at 10 µM in assay [1] was 26.8%; in assay [2] (0.5 h, read-out: %NTCP binding) it was 74.4%.
Turning to `Cc1cc(C(C)(C)C)c(O)c(C)c1CC1=NCCN1` [Oxymetazoline hydrochloride], the remaining activity at 10 µM in assay [1] came out at 90.6%; in assay [2] (0.5 h, read-out: %NTCP binding), 77.4%.
For `CCCCC1C(=O)N(c2ccccc2)N(c2ccc(O)cc2)C1=O` (stereo not drawn) [Oxyphenbutazone], in that order: 106% and 90.4%.
The corresponding values for `CN(C)[C@@H]1C(O)=C(C(N)=O)C(=O)[C@@]2(O)C(O)=C3C(=O)c4c(O)cccc4[C@@](C)(O)[C@H]3[C@H](O)[C@@H]12` [Oxytetracycline dihydrate] are 60.1% and 75.4%.
For `Cl.O=C(O)/C=C/c1ccc(Cn2ccnc2)cc1` [Ozagrel hydrochloride], in assay [1] (setting [5]), the “%NTCP activity” value is listed as 78.6871%. The “%NTCP binding” value in assay [2] (setting [6]) was determined as 102.398%.

Source of the values: PMC5681660, “Reduced hepatitis B and D viral entry using clinically applied drugs as novel inhibitors of the bile acid transporter NTCP” (Scientific Reports, 2017).
